Measurements from ChEMBL document CHEMBL4888484, “Replenishing the malaria drug discovery pipeline: Screening and hit evaluation of the MMV Hit Generation Library 1 (HGL1) against asexual blood stage Plasmodium falciparum ,using a nano luciferase reporter read-out” (2022).
Several values for one entry are separate records, joined by “and”; a condition that tells them apart may be missing. Identical values can stand only once. The campaign covered roughly 150,000 compounds. About 540 (0.36%) showed an effect of 50% or more. This is one part of the list.

System: Plasmodium falciparum
Experiment: Primary screen in NF54 nanoGlo assay, in single point, at 2uM, 72h; a lower Z score goes with more inhibition
Type: functional, Erythrocyte
Conditions: timepoint 72 hour

## COCCOc1ccnc(-c2noc([C@@H]3CCCN3Cc3ccc(C(=O)O)cc3)n2)c1
  % Inhibition: 14%
  Z score: -1.69

## COc1ccc(C(=O)Nc2ccc(N3CCC(C)CC3)c(C(=O)NCc3ccc(F)cc3)c2)c(OC)c1
  % Inhibition: -8%
  Z score: 1.09

## Cc1cc(-c2nn(-c3ccccc3F)cc2CN[C@H]2CCCCNC2=O)c(C)s1
  % Inhibition: -1%
  Z score: 0.09

## Clc1ccc(-c2csc(-c3ccco3)n2)cc1
  % Inhibition: -9%
  Z score: 0.82

## COc1cccc(CNC(=O)c2nnc(-c3cccc(Cl)c3)o2)c1
  % Inhibition: -4%
  Z score: 0.58

## O=C(C1=C(c2ccccc2)S(=O)(=O)CCO1)N(Cc1ccccc1F)c1ccccn1
  % Inhibition: 8%
  Z score: -0.98

## CN(C)c1cc(C(F)(F)F)nc(N2CC[C@@]3(CCCOC3)C2)n1
  % Inhibition: -9%
  Z score: 1.07

## Cn1cc(C(=O)Nc2n[nH]c3ccc(F)cc23)c(C(C)(C)C)n1
  % Inhibition: -14%
  Z score: 2.55

## CC(C)(C(=O)N1CCC[C@H](CN2CCOCC2)C1)c1ccccc1F
  % Inhibition: 8%
  Z score: -1.04

## O=C(NCc1ccc2c(c1)OCO2)c1cc(N[C@H]2CCCNC2=O)ccn1
  % Inhibition: -12%
  Z score: 1.5

## COc1cc(CN2CCn3nc(C(=O)NC(c4ccccc4)c4ccccc4)cc3C2=O)cc(OC)c1
  % Inhibition: 7%
  Z score: -1.11

## CCOCCC(=O)N1C[C@H](c2ccc(C)cc2)[C@@H](N(C)C)C1
  % Inhibition: -17%
  Z score: 2.14

## O=C(Nc1ccc(F)c(Cl)c1)c1cc(S(=O)(=O)N2CCCc3ccccc32)ccc1F
  % Inhibition: 5%
  Z score: -0.56

## COc1ccc(-c2noc(CN3CCC[C@H]3c3cccs3)n2)cc1
  % Inhibition: 17%
  Z score: -1.95

## CCCc1cc(=O)n(-c2ccc(C(=O)N[C@H]3CCCNC3=O)cc2)[nH]1
  % Inhibition: 11%
  Z score: -1.97

## O=C(c1cn(C2CCOC2)nn1)N1CCOC(c2ccsc2)C1 (centres undefined)
  % Inhibition: -4%
  Z score: 0.46

## O=C1CN(C(=O)C2CC2c2ccc(Cl)cc2Cl)CCN1 (centres undefined)
  % Inhibition: -8%
  Z score: 1.17

## O=C(Nc1ccc(F)cc1F)[C@@]1(CCO)CCN(Cc2ccccc2)C1
  % Inhibition: -7%
  Z score: 1.29

## O=C(c1ccc(-c2noc(C3CCCC3)n2)cc1)N1CCN(c2ccccc2)CC1
  % Inhibition: -11%
  Z score: 1.81

## Cc1cc(N2CC(n3nc(C)cc3C)C2)nc(N)n1
  % Inhibition: 1%
  Z score: -0.15

## Cc1ccn(CC(=O)N2CCC[C@H](CCc3ccccc3)C2)n1
  % Inhibition: -1%
  Z score: 0.12

## O=S(=O)(c1cc(F)cc(Cl)c1)N1CCC12COC2
  % Inhibition: -5%
  Z score: 0.74

## O=c1[nH]nc2n1CCN(Cc1ccccc1F)CC2
  % Inhibition: 7%
  Z score: -0.85

## Cn1ccc2cc(CCC(=O)NCCN3CCCCC3)ccc21
  % Inhibition: -1%
  Z score: 0.07

## CCN(Cc1nc2cc(OC)c(OC)cc2c(=O)[nH]1)C(=O)CN1C(=O)NC2(CCCCC2C)C1=O (centres undefined)
  % Inhibition: -6%
  Z score: 1.11

## COC(=O)c1ccc(C(=O)NCC2CCC(c3nc4ccccc4n3C)CC2)cc1 (centres undefined)
  % Inhibition: -8%
  Z score: 0.96

## COC1CN(C2CC(=O)N(CC(F)(F)F)C2=O)CCC1C (centres undefined)
  % Inhibition: -8%
  Z score: 0.84

## COc1ccc(CNC(=O)CN2CCN(C(=O)Nc3ccccc3)CC2=O)cc1
  % Inhibition: -17%
  Z score: 2.16

## CCS(=O)(=O)c1ccc(-c2c[nH]nc2C)s1
  % Inhibition: -12%
  Z score: 1.49

## Cc1nc(-c2cc(S(=O)(=O)NC3CCCCCC3)cn2C)sc1C(=O)N1CCCCC1
  % Inhibition: -11%
  Z score: 2.06

## O=C(O)[C@@H]1CCCN1C(=O)Cc1ccc(Cl)s1
  % Inhibition: -6%
  Z score: 0.87

## COCC(=O)N(Cc1csc(COc2ccc(Cl)cc2)n1)C1CC1
  % Inhibition: 4%
  Z score: -0.48

## c1ccc2c(OC3COC3)ccnc2c1
  % Inhibition: 7%
  Z score: -1.34

## C[C@@H](CO)C1CCN(C(=O)c2cccc3c2CCC3=O)CC1
  % Inhibition: 10%
  Z score: -1.98

## Cc1ccc(C(=O)N2CCC[C@H]2c2ccc3c(c2)OCCCO3)cc1NC(=O)c1ccco1
  % Inhibition: -3%
  Z score: 0.49

## Cc1ccc2c(c1)c(-c1ccccc1)nc1sc(-c3ccccc3)c([O-])[n+]12
  % Inhibition: -14%
  Z score: 2.01

## CC[C@@H](c1ccnn1C)n1cnc(-c2ccccc2)c1-c1nccn1C
  % Inhibition: -5%
  Z score: 0.89

## CN(CC(C)(C)CNC(=O)C1CCCC1)C(=O)C1CCCC1
  % Inhibition: -9%
  Z score: 0.81

## CN(Cc1ncon1)S(=O)(=O)C[C@@]12CC[C@@H](CC1=O)C2(C)C
  % Inhibition: -3%
  Z score: 0.63

## Cc1cc(N2CCc3ccccc3C2)n2ncnc2n1
  % Inhibition: -18%
  Z score: 2.3

## O=c1cc(-c2ccccc2)[nH]c2ccc(Br)cc12
  % Inhibition: 4%
  Z score: -0.78

## Fc1ccc(CCn2ccnn2)cc1F
  % Inhibition: -8%
  Z score: 1.09

## CNC(=O)C1CN(CC2CCCCN2C(=O)OC(C)(C)C)CCO1 (centres undefined)
  % Inhibition: -4%
  Z score: 0.86

## Cc1ccccc1COC1CN(C(=O)CN2CCCCCC2=O)C1
  % Inhibition: -10%
  Z score: 1.48

## COc1ccccc1OCC(=O)N[C@H](c1ccc(Br)cc1)C1CCC1
  % Inhibition: 12%
  Z score: -1.05

## CC1CC(CN2C(=O)N[C@@H](C(C)C)C2=O)CCO1 (some centres undefined)
  % Inhibition: -12%
  Z score: 1.94

## COC[C@H]1CCN(Cc2cnc(-c3ccccc3)s2)C1
  % Inhibition: -14%
  Z score: 1.4

## CCOC(=O)COc1ccc(NC(=O)N2CCOC3(CCC3)C2)cc1
  % Inhibition: -9%
  Z score: 0.92

## Cc1cc(C(=O)NC[C@H](O)Cc2ccccc2)oc1Br
  % Inhibition: 3%
  Z score: -0.49

## CC(C)c1nc2n(n1)C1(CCCCC1)[C@@H]1CCCC[C@@H]1N2C(=O)c1ccc(F)cc1
  % Inhibition: -27%
  Z score: 2.37

## CN1c2ccccc2N(Cc2cccnc2)S1(=O)=O
  % Inhibition: 1%
  Z score: -0.17

## Cc1ccc(CN(C)C(=O)NCCc2cc(C)c(O)c(C)c2)o1
  % Inhibition: 1%
  Z score: -0.26

## O=C(c1cc(=O)c(OCc2ccccc2)c[nH]1)N1CCOCC1
2 µM
  % Inhibition: 2% and -2%

## COc1cccc2sc(OC3CN(C(=O)c4ccco4)C3)nc12
  % Inhibition: 0%
  Z score: -0.04

## COc1ccc(Cn2ccnc2CNC2CCCCC2)cc1
  % Inhibition: -5%
  Z score: 0.46

## CCc1ccc(O)c(NC(=O)[C@H]2CCOC2)c1
  % Inhibition: -1%
  Z score: 0.12

## COCCN(CC(=O)N1CCN(C)CC1)Cc1nccs1
  % Inhibition: -16%
  Z score: 1.53

## O=C(c1ocnc1C1CC1)N1CCn2c(nnc2C(F)(F)F)C1
  % Inhibition: -10%
  Z score: 1.1

## CCc1nccn1CC(=O)N1CCCC[C@@H]1CCCOC
  % Inhibition: 8%
  Z score: -1.67

## COc1ccc([C@@H](C)CN2CCN(c3ccnc(C)n3)CC2)cc1
  % Inhibition: 15%
  Z score: -1.89

## CC1CCC2(CC1)N=C(c1ccccc1)C(=O)N2 (centres undefined)
  % Inhibition: 34%
  Z score: -3.87

## CCCNC(=O)c1ccc(N(C)Cc2nnc3ccccn23)nc1
  % Inhibition: -24%
  Z score: 3.45

## CC(C)N(Cc1cnn(C)c1)C(=O)c1cc2ccccc2c(=O)[nH]1
  % Inhibition: -41%
  Z score: 4.84

## O=C1CCC(c2ccccc2)(c2ccccc2)CN1CCN1CCOCC1
  % Inhibition: 0%
  Z score: 0.07

## CC(C)n1ncc2c(C(N)=O)cc(-c3ccc4c(c3)OCCO4)nc21
  % Inhibition: -9%
  Z score: 1.31

## CNC(=O)[C@@H](C)CN(C)c1ccncc1F
  % Inhibition: -5%
  Z score: 0.72

## O=C(NC1CCN(c2nnc3ccc(Cl)cn23)CC1)c1cccnc1
  % Inhibition: 32%
  Z score: -3.62

## Brc1ccc2c(c1)C1(CCCC1)CN2
  % Inhibition: -14%
  Z score: 1.96

## Cn1c(C[C@H]2CN(C(=O)c3ccc(Cl)cc3)CC[C@H]2CC(=O)O)nc2ccccc21
  % Inhibition: -3%
  Z score: 0.44

## CN(CCN(C)S(=O)(=O)c1c(Cl)cccc1Cl)C1CCCCC1
  % Inhibition: -3%
  Z score: 0.34

## Cc1nnc(CCNC(=O)N2CC[C@H](C(=O)N3CCCC3)C2)s1
  % Inhibition: -15%
  Z score: 1.61

## Cc1ccccc1NC(=O)c1n(O)c2ccccc2[n+]1[O-]
  % Inhibition: -13%
  Z score: 1.64

## CCOC[C@H]1CCN(C(=O)Nc2cnc(C)cn2)C1
  % Inhibition: 32%
  Z score: -3.64

## Cc1c(C(=O)N(C)[C@@H](C)c2cccc(-c3ccncc3)c2)nnn1-c1ccc(F)cc1
  % Inhibition: -3%
  Z score: 0.35

## CC[C@]1(N2CCN(C(=O)CCc3c[nH]c4ccccc34)CC2)CCN(S(C)(=O)=O)C1
  % Inhibition: -4%
  Z score: 0.38

## CC[C@@H](C(=O)O)N(C)C(=O)c1cccc(C)c1Cl
  % Inhibition: -11%
  Z score: 1.46

## COC[C@H]1CCCN(S(=O)(=O)NCC2(N3CCCCC3)CCCC2)C1
  % Inhibition: -1%
  Z score: 0.16

## O=C(Nc1ccccc1)C1Cc2cc(C(F)(F)F)ccc2N2CCN(C3CCCC3)CC12 (centres undefined)
  % Inhibition: -9%
  Z score: 1.5

## CC1CCC(NC(=O)CS(=O)(=O)C2CCCC2)C(C)C1 (centres undefined)
  % Inhibition: -8%
  Z score: 1.23

## CC(C)[C@H]1CCO[C@H]1C(=O)NCCN1CC2CCC(C1)O2
  % Inhibition: -3%
  Z score: 0.61

## CCCN1CCN(C(=O)CCc2n[nH]c(C)c2C)[C@H]2CS(=O)(=O)C[C@H]21
  % Inhibition: -13%
  Z score: 2.1

## Cc1ccc(NC2(C(=O)NCCN(C)S(C)(=O)=O)CCCC2)cc1
  % Inhibition: -12%
  Z score: 1.16

## CCN1C[C@H](CN(C)C(=O)c2cnn(C)c2C)Oc2ccccc21
  % Inhibition: 10%
  Z score: -1.28

## CC(=O)Nc1ccnn1CC1=CCCN([C@@H](C)C(=O)N2CCCC2)C1
  % Inhibition: -7%
  Z score: 1.16

## CC(=O)N1CCc2cc(N[C@@H](C)C(=O)N3CCCCCC3)ccc21
  % Inhibition: 1%
  Z score: -0.16
